Measured values: the antibiotic and cytotoxicity screens of Wong et al. (2023)
Some of the results follow.

Key:
HSkMC = human skeletal muscle cells; experiment: cytotoxicity call (relative viability < 0.9); details: 10 µM
HepG2 = experiment: cytotoxicity call (relative viability < 0.9); details: 10 µM
S. aureus RN4220 = experiment: growth inhibition call (relative growth <= 0.2); details: 50 µM

NNc1ccc2c(N)[nH]nc2c1
cytotoxicity call (HSkMC): inactive
cytotoxicity call (HepG2): inactive
growth inhibition call (S. aureus RN4220): inactive

Cc1noc(C)c1NC(=O)N(C)C[C@@H]1Oc2c(NS(=O)(=O)c3ccccc3)cccc2C(=O)N([C@H](C)CO)C[C@H]1C
cytotoxicity call (HSkMC): inactive
cytotoxicity call (HepG2): inactive
growth inhibition call (S. aureus RN4220): inactive

C[C@@H]1CN([C@H](C)CO)C(=O)c2cc(NC(=O)Nc3ccc(F)cc3)ccc2O[C@@H](C)CCCCO[C@@H]1CN(C)S(=O)(=O)c1ccc(F)cc1
cytotoxicity call (HSkMC): inactive
cytotoxicity call (HepG2): inactive
growth inhibition call (S. aureus RN4220): inactive

O=C(C[C@@H]1CC[C@@H]2[C@H](COC[C@@H](O)CN2C(=O)c2ccccn2)O1)NC1CCC1
cytotoxicity call (HSkMC): inactive
cytotoxicity call (HepG2): inactive
growth inhibition call (S. aureus RN4220): inactive

C[C@H](CO)N1C[C@H](C)[C@@H](CN(C)S(=O)(=O)c2cn(C)cn2)Oc2ccc(NC(=O)CCCCCC(=O)Nc3ccccc3N)cc2CC1=O
cytotoxicity call (HSkMC): inactive
cytotoxicity call (HepG2): inactive
growth inhibition call (S. aureus RN4220): inactive

Cc1cc(C(=O)N2CC[C@@]2(C)C(=O)NS(=O)(=O)c2ccc(C#N)cc2)nn1C
cytotoxicity call (HSkMC): inactive
cytotoxicity call (HepG2): inactive
growth inhibition call (S. aureus RN4220): inactive

CC(C)NC(=O)Nc1cccc2c1O[C@@H](CN(C)S(=O)(=O)c1ccc(F)cc1)[C@H](C)CN([C@@H](C)CO)C2=O
cytotoxicity call (HSkMC): inactive
cytotoxicity call (HepG2): inactive
growth inhibition call (S. aureus RN4220): inactive

Cc1noc(C)c1S(=O)(=O)N(C)C[C@@H]1Oc2c(NC(=O)C3CCOCC3)cccc2C(=O)N([C@H](C)CO)C[C@@H]1C
cytotoxicity call (HSkMC): inactive
cytotoxicity call (HepG2): inactive
growth inhibition call (S. aureus RN4220): inactive

COc1ccc(N)cn1
cytotoxicity call (HSkMC): inactive
cytotoxicity call (HepG2): inactive
growth inhibition call (S. aureus RN4220): inactive

C[C@H](CO)N1C[C@H](C)[C@@H](CN(C)Cc2ccc(C(=O)O)cc2)Oc2ccc(NS(C)(=O)=O)cc2C1=O
cytotoxicity call (HSkMC): inactive
cytotoxicity call (HepG2): inactive
growth inhibition call (S. aureus RN4220): inactive

Cc1nc(C)n(C(=O)N2CCOCC2)n1
cytotoxicity call (HSkMC): inactive
cytotoxicity call (HepG2): inactive
growth inhibition call (S. aureus RN4220): inactive

COc1ccc(NC(=O)Nc2ccc3c(c2)C(=O)N([C@@H](C)CO)C[C@H](C)[C@@H](CN(C)C(=O)NC2CCCCC2)OCCCC[C@H](C)O3)cc1
cytotoxicity call (HSkMC): inactive
cytotoxicity call (HepG2): inactive
growth inhibition call (S. aureus RN4220): inactive

O=C(CCC1=NS(=O)(=O)c2cc(Br)cnc2N1)N1CCOCC1
cytotoxicity call (HSkMC): inactive
cytotoxicity call (HepG2): inactive
growth inhibition call (S. aureus RN4220): inactive

C[C@H]1CN([C@@H](C)CO)C(=O)Cc2cc(NC(=O)CCCN(C)C)ccc2O[C@@H]1CN(C)C(=O)Nc1ccc2c(c1)OCO2
cytotoxicity call (HSkMC): inactive
cytotoxicity call (HepG2): inactive
growth inhibition call (S. aureus RN4220): inactive

COCC#Cc1cnc2c(c1)C(=O)N([C@H](C)CO)C[C@@H](C)[C@H](CN(C)C(=O)c1ccc3c(c1)OCO3)O2
cytotoxicity call (HSkMC): inactive
cytotoxicity call (HepG2): inactive
growth inhibition call (S. aureus RN4220): inactive

COc1ccc(CN(C)C[C@@H]2OCCCC[C@@H](C)Oc3ccc(NC(=O)c4ccncc4)cc3C(=O)N([C@H](C)CO)C[C@@H]2C)cc1
cytotoxicity call (HSkMC): inactive
cytotoxicity call (HepG2): inactive
growth inhibition call (S. aureus RN4220): inactive

COc1c(N2CC3CCCNC3C2)c(F)cc2c(=O)c(C(=O)O)cn(C3CC3)c12.Cl (stereo unspecified)
cytotoxicity call (HSkMC): inactive
cytotoxicity call (HepG2): inactive
growth inhibition call (S. aureus RN4220): active

CC(C)N1CC2(CN(Cc3ccc(-c4ccccc4)cc3)C2)Oc2c(NC(=O)c3ccncc3)cccc2C1=O
cytotoxicity call (HSkMC): inactive
cytotoxicity call (HepG2): inactive
growth inhibition call (S. aureus RN4220): inactive

COc1ccc(S(=O)(=O)N(C)C[C@H]2Oc3ccc(NS(=O)(=O)c4ccc(F)cc4)cc3C(=O)N([C@@H](C)CO)C[C@@H]2C)cc1
cytotoxicity call (HSkMC): inactive
cytotoxicity call (HepG2): inactive
growth inhibition call (S. aureus RN4220): inactive

C[C@H]1CN([C@@H](C)CO)S(=O)(=O)c2ccc(/C=C/c3ccccc3)cc2O[C@H]1CN(C)C(=O)Nc1cc(F)ccc1F
cytotoxicity call (HSkMC): inactive
cytotoxicity call (HepG2): inactive
growth inhibition call (S. aureus RN4220): inactive

COCC(=O)Nc1ccc2c(c1)C(=O)N(C)C[C@H](OC)[C@H](C)CN(C(=O)Cc1ccccn1)[C@@H](C)CO2
cytotoxicity call (HSkMC): inactive
cytotoxicity call (HepG2): inactive
growth inhibition call (S. aureus RN4220): inactive

C[C@@H]1CN([C@H](C)CO)C(=O)c2cccc(NC(=O)C3CCCCC3)c2O[C@@H]1CN(C)C(=O)Nc1ccc(C(F)(F)F)cc1
cytotoxicity call (HSkMC): inactive
cytotoxicity call (HepG2): inactive
growth inhibition call (S. aureus RN4220): active

CCO[C@@H]1OC(=O)C[C@@H]1NC(=O)[C@@H]1CCCN1C(=O)[C@@H](NC(=O)c1ccc(N)c(Cl)c1)C(C)(C)C
cytotoxicity call (HSkMC): inactive
cytotoxicity call (HepG2): inactive
growth inhibition call (S. aureus RN4220): inactive

Cc1noc(C)c1NC(=O)Nc1ccc2c(c1)C(=O)N([C@H](C)CO)C[C@H](C)[C@H](CN(C)C(=O)Nc1ccccc1)OCCCC[C@@H](C)O2
cytotoxicity call (HSkMC): inactive
cytotoxicity call (HepG2): inactive
growth inhibition call (S. aureus RN4220): inactive

O=C1CCC(=O)N1CNc1ccccn1
cytotoxicity call (HSkMC): inactive
cytotoxicity call (HepG2): inactive
growth inhibition call (S. aureus RN4220): inactive

CC(C)NC(=O)N(C)C[C@@H]1Oc2cc(C#Cc3cccc(F)c3)ccc2S(=O)(=O)N([C@H](C)CO)C[C@@H]1C
cytotoxicity call (HSkMC): inactive
cytotoxicity call (HepG2): inactive
growth inhibition call (S. aureus RN4220): inactive

CCCNC(=O)N1C[C@H](O)COC[C@H]2O[C@@H](CC(=O)N3CCOCC3)CC[C@@H]21
cytotoxicity call (HSkMC): inactive
cytotoxicity call (HepG2): inactive
growth inhibition call (S. aureus RN4220): inactive
